# Whole data set: some 33,000 sequences, median “E-score (-0.5 to 0.5)” near -0.043, cut for the highest 2% near 0.37. The list shows a part of the results.
# Biological target: T1, Upc2 (UniProt Q12151)
# T1 sequence: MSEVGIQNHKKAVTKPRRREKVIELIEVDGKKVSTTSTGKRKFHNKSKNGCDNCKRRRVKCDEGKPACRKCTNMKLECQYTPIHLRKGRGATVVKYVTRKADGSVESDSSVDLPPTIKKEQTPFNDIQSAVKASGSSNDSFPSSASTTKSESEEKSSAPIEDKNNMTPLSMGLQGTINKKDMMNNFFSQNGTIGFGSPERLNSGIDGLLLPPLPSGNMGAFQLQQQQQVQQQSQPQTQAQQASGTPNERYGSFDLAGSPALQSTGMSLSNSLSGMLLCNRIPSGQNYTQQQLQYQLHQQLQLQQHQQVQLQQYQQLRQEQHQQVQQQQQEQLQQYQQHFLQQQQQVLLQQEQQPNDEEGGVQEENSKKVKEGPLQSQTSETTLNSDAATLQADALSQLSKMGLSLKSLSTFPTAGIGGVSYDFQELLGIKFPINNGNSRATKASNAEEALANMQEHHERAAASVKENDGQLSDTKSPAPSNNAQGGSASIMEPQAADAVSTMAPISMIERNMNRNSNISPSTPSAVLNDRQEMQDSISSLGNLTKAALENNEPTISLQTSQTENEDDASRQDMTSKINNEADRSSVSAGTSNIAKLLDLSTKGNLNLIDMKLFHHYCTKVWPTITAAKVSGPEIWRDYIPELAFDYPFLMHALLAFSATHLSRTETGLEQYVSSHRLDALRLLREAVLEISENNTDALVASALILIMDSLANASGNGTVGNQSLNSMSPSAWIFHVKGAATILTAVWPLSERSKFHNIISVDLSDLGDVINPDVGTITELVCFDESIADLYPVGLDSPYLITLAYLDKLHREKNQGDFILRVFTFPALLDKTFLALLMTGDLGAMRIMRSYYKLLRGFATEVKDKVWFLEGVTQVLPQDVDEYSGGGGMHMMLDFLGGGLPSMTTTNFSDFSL
# Assay: PBM E-score (8-mer binding enrichment) (E-score (-0.5 to 0.5)); higher = stronger / more preferred TF binding; most listed sequences are background and not binding sites
# Conditions: protein concentration: 200 nM; construct: GST-full length
# Summary of the method: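 Masliner-normalised scans of fluorescent anti-GST signal were the basis for scoring. That signal came from GST-tagged yeast transcription factors applied at about 100-200 nM to double-stranded universal all-10-mer Agilent arrays on fresh or once-stripped slides. Each ungapped eight-base word, pooled with its reverse complement, received an E-score from the Universal PBM Analysis Suite.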
row,Sequence,PBM E-score
1,ACCAGACT,-0.0707
2,ACGAAGTG,0.329
3,CTTAAATC,-0.0293
4,TCAAGTAA,-0.135
5,GCGTTCAA,0.173
6,ATAAGCCG,-0.18
7,CTCGTTCA,0.476
8,ACATAGCG,-0.165
9,CTTTGCAC,-0.022
10,CAGGAGAC,-0.0559
11,GCATCCTA,-0.0326
12,ACAGCCTA,-0.103
13,ATCAACTG,-0.177
14,AAGAGGTC,-0.186
15,GCCGTTAA,0.292
16,CCCGTCGG,0.0352
17,GTTCACTA,0.224
18,CAATTGCG,-0.143
19,AATGTTCC,-0.181
20,AGGTCATC,0.0599
21,GCCCCAAC,-0.00923
22,GAAGAGCC,-0.145
23,AGTCCGTA,0.32
24,CCCCTATC,-0.118
25,ACCGCACG,0.0511

row,Sequence,PBM E-score
1,ACTCGCAC,0.0893
2,ATATAGTG,0.0967
3,ATGGTGTC,-0.132
4,ACGATTCC,0.299
5,CAATGGGA,-0.161
6,ATGGTATC,0.15
7,GTTATTGA,0.0213
8,ATTCGTCA,-0.00206
9,ACCCTGAC,-0.296
10,GGATCTGA,-0.0319
11,AGTATCTA,-0.0866
12,CCTTAGGC,-0.0987
13,AGTGTGCG,-0.0036
14,CCGCTGTA,-0.259
15,CGCCCACG,-0.0104
16,CAATCGCA,0.0411
17,ACGACTCA,0.29
18,GTCACTTA,0.0983
19,ATGGGCCG,-0.21
20,TTAATTAA,-0.0855
21,GACGCATC,-0.014
22,CGCCTAGA,0.139
23,CATAGGCA,-0.296
24,GGGAAGTA,-0.108
25,TCCCCGAA,-0.23

row,Sequence,PBM E-score
1,GGTCCTAA,0.0427
2,GTTGCAGA,-0.126
3,TTCTACAA,-0.0672
4,TCCCTTAA,-0.111
5,AAGATTAT,-0.0246
6,CCGGGTCC,-0.0974
7,TAATACAA,0.0208
8,GATTATTA,-0.0512
9,AATTTAGA,0.00026
10,AAATCCCA,-0.0654
11,CCAACCGC,-0.152
12,GGTGGCTA,-0.169
13,TCCGCCCA,-0.166
14,TAGGTATA,0.205
15,AAATATGC,0.0217
16,GAATGGAC,-0.171
17,CCGTATTA,0.296
18,AGGCGAAT,-0.00707
19,GGTACGAA,0.459
20,GCTCACAC,-0.0356
21,GAGATGCA,0.0212
22,ATGCTGGG,-0.16
23,AATTTACG,0.335
24,ACCAGTCG,0.107
25,AAGTCGGC,-0.136

row,Sequence,PBM E-score
1,CAGAGAAA,-0.177
2,ATCGTGTC,0.131
3,ATTAATGA,0.0119
4,ACGTGAGG,-0.0389
5,ATCAGAGG,-0.198
6,AAACAATC,-0.0625
7,CAATCCCA,-0.248
8,ATACATGG,-0.124
9,CGCTTGAA,0.171
10,ACAGGCGT,-0.185
11,ATCTTTAA,0.164
12,ACTTATAT,0.169
13,AGGGGCGC,-0.17
14,AAGGAGCC,-0.281
15,AAACTTTC,-0.21
16,CCATGCTC,-0.176
17,CAAAAGAA,0.0597
18,CTCTGTGC,-0.171
19,CAAGATTA,-0.0496
20,CTTGTCTC,-0.218
21,AAAGCCCC,-0.0844
22,CAAAGCAG,-0.0805
23,AGGAGGAG,-0.178
24,CTTTGATA,-0.0233
25,CGGTGTTC,0.0385

row,Sequence,PBM E-score
1,CAACTGTA,0.0347
2,CCACTTCG,0.0558
3,ATTGTTTC,0.0235
4,ATGTCAGG,-0.331
5,CCCGAGGA,0.0277
6,CACCTAAC,-0.188
7,CTGGTTTA,0.031
8,TCTCGACA,-0.0591
9,AGTACACA,0.143
10,GCTTTCGA,-0.144
11,CAGCTACC,-0.263
12,ATTGCTCA,-0.0871
13,CAATCCGG,-0.0955
14,ATTTGCTC,-0.0784
15,AGATTGTG,-0.206
16,CGACGCAG,0.0461
17,TCCCGTAA,0.265
18,AGAGAAAG,-0.129
19,AACAGCTG,-0.0964
20,AACTGCAC,-0.0304
21,GCTGAAGA,-0.15
22,CTGGATTC,-0.0407
23,ACTTCCTC,-0.155
24,CAGCCCTG,-0.241
25,AAGACAAA,0.0821

row,Sequence,PBM E-score
1,CAGCGGAC,-0.0352
2,TAAAGGTA,0.04
3,CACTAAAG,-0.0675
4,CTTTGATC,-0.279
5,ATACCTCA,-0.196
6,ATTACAAC,-0.0624
7,CCCACTTA,-0.0764
8,CGCAACAG,-0.0833
9,CCAGATCG,0.0708
10,ATTTTCAA,0.00587
11,ACATAGAA,-0.23
12,AGCTGCCA,-0.188
13,CAAACTAC,-0.0136
14,GCTCCCAC,-0.323
15,CGTTCCGC,0.385
16,CTAGGAAC,0.0689
17,CTACAGCC,-0.304
18,AAAACTGC,0.0016
19,AACCGTTG,-0.0628
20,CGTGGACA,-0.078
21,ACGGTCGA,0.135
22,CGCATGCG,0.176
23,ACAGGGCC,-0.027
24,GCACGGGC,-0.24
25,ATCTTTTA,0.176

row,Sequence,PBM E-score
1,AAAGCCGT,0.0751
2,CTGAATGA,-0.00417
3,GCAAGTGC,-0.223
4,AACCCTAA,-0.138
5,ATAGAAGG,-0.111
6,AGCCCCTG,-0.138
7,AGTGCCCG,-0.0912
8,CTGCGCTC,-0.153
9,ACGCGTCT,0.0516
10,GACGTCAA,0.0563
11,AGATTTTC,-0.0873
12,CGTCAGAC,-0.148
13,AACGGCGC,0.219
14,GTCTTTTA,0.205
15,CGTCCGAA,-0.0113
16,CACGGCAG,-0.00161
17,AACGTAAA,0.25
18,ATGATGTG,-0.14
19,ATAGGTCC,-0.132
20,GCTTTTAC,0.246
21,GTGAACGA,0.453
22,CACGAGAA,0.0693

# Source: the supplement of paper PMC3334620
